According to publication PMC6919601, “Identification of Plasmodium dipeptidyl aminopeptidase allosteric inhibitors by high throughput screening” (PLoS ONE, 2019):
Hit rate of the full screen: of about 110,000 compounds, about 230 (0.21%) showed an effect of 50% or more. Some of the results follow.

molecular target: DPAP1 (Plasmodium falciparum, UniProt Q8IIJ9); test: primary screen, percent inhibition; read by cleavage of a fluorogenic dipeptide substrate; higher = more effect of the substance; set-up: species or system P. falciparum D10 trophozoite lysates; single well
Sequence (Q8IIJ9 whole entry, looked up): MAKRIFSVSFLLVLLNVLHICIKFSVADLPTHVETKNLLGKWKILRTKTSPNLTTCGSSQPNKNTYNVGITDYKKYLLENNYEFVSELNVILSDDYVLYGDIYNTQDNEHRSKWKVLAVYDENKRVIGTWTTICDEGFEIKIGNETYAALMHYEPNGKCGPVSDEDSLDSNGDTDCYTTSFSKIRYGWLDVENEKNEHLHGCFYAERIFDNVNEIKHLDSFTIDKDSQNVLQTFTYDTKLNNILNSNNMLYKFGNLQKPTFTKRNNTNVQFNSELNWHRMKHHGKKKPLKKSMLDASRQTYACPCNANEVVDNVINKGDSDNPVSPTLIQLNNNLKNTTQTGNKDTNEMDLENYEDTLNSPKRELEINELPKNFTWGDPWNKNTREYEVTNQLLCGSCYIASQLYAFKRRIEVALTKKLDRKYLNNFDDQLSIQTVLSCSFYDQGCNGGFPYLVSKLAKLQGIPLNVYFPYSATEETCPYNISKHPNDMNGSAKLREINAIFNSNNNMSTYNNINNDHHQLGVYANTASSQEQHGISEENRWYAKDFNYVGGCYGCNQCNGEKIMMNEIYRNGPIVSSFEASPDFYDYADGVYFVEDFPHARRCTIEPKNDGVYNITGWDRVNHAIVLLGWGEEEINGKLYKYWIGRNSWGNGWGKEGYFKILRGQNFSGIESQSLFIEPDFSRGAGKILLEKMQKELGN
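Further: 30 min substrate incubation versus DMSO and 10 µM JCP410 controls.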

Row | SMILES | % Inhibition @ 10 uM
1 | Cc1cc(C)n(-c2nc3cc(Cl)ccc3nc2NCCN2CCOCC2)n1 | 4.83%
2 | O=C(NCc1ccccc1)C(=O)NCc1ccc2c(c1)OCO2 | 1.96%
3 | CCOC(=O)N1CCC(NC(=O)c2cc3c(-c4ccccc4F)nn(C)c3s2)CC1 | -1.43%
4 | Cc1cccc2c1-c1sc(C(=O)NCc3ccco3)cc1CO2 | -1.37%
5 | CC(=O)N1CCc2c(sc3nc(SCCC(C)C)n(Cc4ccco4)c(=O)c23)C1 | -1.71%
6 | CCOc1ccccc1CNC(=O)C(C)n1nc(C)c2sc3ccccc3c2c1=O (stereo not drawn) | -1.17%
7 | CC1CCCC(C)N1S(=O)(=O)c1ccc(S(=O)(=O)N2CCN(c3ncccn3)CC2)cc1 (stereo not drawn) | -2.92%
8 | CCOc1ccccc1NC(=O)C1CCCCC1 | 1.19%
9 | COc1ccc(S(=O)(=O)N(C)CC(=O)Nc2ccc(Br)cc2F)cc1OC | -4.12%
10 | O=C(COc1ccc2ccccc2c1Br)NCc1ccccc1 | -0.652%
11 | CC(=O)c1cccc(NC(=O)/C=C/c2ccc([N+](=O)[O-])cc2)c1 | 6.43%
12 | CCN(CC)c1ccc(NC(=O)c2ccc3c(c2)OCCO3)cc1 | 0.993%
13 | COc1ccc(CN2CCN(C)CC2)c(OC)c1 | 1.43%
14 | OC1=C2C(=Nc3ncnn3C2c2ccco2)CC(c2ccccc2)C1 (stereo not drawn) | 0.032%
15 | Cc1ccc(-n2c3c(c(=O)[nH]c2=O)C(NC(=O)c2ccc(Cl)cc2)(C(F)(F)F)C(=O)N3)cc1C (stereo not drawn) | -1.22%
16 | c1ccc(-c2cc(N3CCCCC3)nc3ccccc23)cc1 | 2.66%
17 | Cc1ccccc1Cn1cc(NC(=O)c2cc3ccccc3oc2=O)cn1 | 7.04%
18 | Cc1ccsc1-c1nc(CSCC(=O)NCc2ccc(Cl)cc2)c(C)o1 | 2.37%
19 | CCCCOc1ccc(NC(=O)/C=C/C(=O)O)cc1 | 0.878%
20 | Cc1ccc(-c2cc(C(=O)Nc3ccccc3C(N)=O)c3ccccc3n2)cc1 | 0.188%
21 | CC1CCCCN1C(=O)Cn1cc(C(=O)C2CC2)c2ccccc21 (stereo not drawn) | 3.25%
22 | Cc1cccc(CSCCNC(=O)CN2C(=O)c3cccc4cccc2c34)c1 | -2.16%
23 | Cc1c(CC(=O)NCc2ccco2)c(=O)oc2c(C)c(O)ccc12 | 5.68%
24 | CC(NC(=O)c1cc(C2CC2)on1)c1ccccc1 (stereo not drawn) | -8.56%
25 | CCCCCNC(=O)c1nnn(-c2cccc(C(F)(F)F)c2)c1N | 1.24%
26 | Cc1ccc(/C=C2\C(=N)N3N=C(N4CCOCC4)SC3=NC2=O)cc1 | 1.51%

Row | SMILES | % Inhibition @ 10 uM
27 | Cn1c(-c2ccccn2)nc2ccccc21 | 3.44%
28 | CCCCC(=O)Nc1sc2c(c1C(=O)OCC)CCC/C2=N\O | 7.33%
29 | Cc1ccc2c(CNCCc3cccs3)c(C(=O)O)n(Cc3ccccc3F)c2c1 | 0.158%
30 | Cc1nn(CCCC(=O)NCc2ccccn2)c(=O)c2cc3sccc3n12 | 4.95%
31 | CCOC(=O)c1nnn(-c2nonc2N)c1-c1ccc2c(c1)OCO2 | 3.25%
32 | CCN(Cc1ccncc1)C(=O)Cc1ccccc1 | 1.87%
33 | C=CCn1c(-c2ccccc2)cs/c1=N\c1ccccc1 | 1.72%
34 | CN(CC(=O)NC1CCCc2ccccc21)S(=O)(=O)c1cc(Br)cnc1N (stereo not drawn) | 4.86%
35 | C=Cc1ccc(Cn2c(C(=O)O)c(CNCCC3=CCCCC3)c3ccccc32)cc1 | 8.05%
36 | Cc1cccc(C(=O)Nc2c3c(nn2-c2ccccc2C)CS(=O)(=O)C3)c1 | 11.1%
37 | O=C(NCc1cn2ccsc2n1)c1cccs1 | -2.45%
38 | COc1ccc(CCNCc2ccc(C(F)(F)F)cc2)cc1 | 1.84%
39 | Cc1[nH]c2ccccc2c1CN1CCCCCC1 | 0.501%
40 | NC(=O)c1sc2nc(C3CC3)cc(-c3ccc(Cl)cc3)c2c1N | -4.5%
41 | COC(=O)c1cnn(-c2ccccc2)c1-n1cccc1C=O | 3.04%
42 | Cc1nn(C(=O)C2CCCN2S(=O)(=O)c2ccc(Cl)cc2)c(C)c1Sc1ccccc1 (stereo not drawn) | 2.03%
43 | COc1ccc(C2C(C#N)=C(N)Oc3c2c(O)nc2ccccc32)cc1OC (stereo not drawn) | -1.1%
44 | COc1ccc(NCN2C(=O)C3C4C=CC(C4)C3C2=O)cc1 (stereo not drawn) | -0.996%
45 | Cc1c(CCC(=O)O)c(=O)oc2cc3occ(-c4ccc(F)cc4)c3cc12 | -2.92%
46 | COc1ccc(-c2ccc3c(N)c(C(=O)Nc4ccc5c(c4)OCO5)sc3n2)cc1OC | -3.41%
47 | Oc1ccc(CN2CCOCC2)nc1CCc1ccccc1 | 2.94%
48 | COCCN1C(=O)c2ccccc2C(C(=O)NCCN(C)C2CCCCC2)C1c1cccs1 (stereo not drawn) | -4.68%
49 | CC1C(=O)CCN(Cc2ccccc2)C1C (stereo not drawn) | 1.03%
50 | CCc1ccc(SC(CC(=O)c2ccccc2)c2cccc([N+](=O)[O-])c2)s1 (stereo not drawn) | -3.38%
51 | CCCC(=O)NCCc1nc2ccccc2n1CC(C)C | 0.121%
